Measurements taken from PubChem BioAssay AID686971 (National Center for Advancing Translational Sciences (NCATS), 2013).
In all, about 360,000 compounds went through this assay and about 7,500 (2.1%) were called active. Inconclusive means that the source gave no clear call. Such entries were picked first, then a sample of the others. The call rests on the fitted dose curve; in most records, active means well fitted cell-killing curve with a large enough effect; inconclusive means small, poorly fitted or top-dose-only effect, or effect the other way, or another doubt; inactive means no such curve, though single readings can be large or run the other way. Potencies of inconclusive entries are left out as doubtful fits.
Potency means the concentration at half of the fitted maximal effect; tags describe the fitted curve by direction and shape.

Assay: qHTS for induction of synthetic lethality in tumor cells producing 2HG: qHTS for the HT-1080-IDH1KD cell line;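 on activity, negative = toxicity: 0% = DMSO wells and -100% = cell-free medium wells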
Settings: HT-1080 IDH1 knockdown viability, ATP luminescence, 48 h; activity, negative = toxicity: at 46.1 µM (top of the series) unless noted
Procedure, shortened: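 % activity derives from luminescence (CellTiter-Glo), normalised to DMSO and no-cell wells. HT-1080-IDH1KD cells, 750/well, had 48 h compound exposure at 37 °C.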
For `CC1(OC(=O)CCc2ccccc2)C(=O)C=C2C=C(c3ccc(C#N)cc3)N(CC3CC3)C=C2C1=O` (centres undefined), the activity, negative = toxicity was inconclusive: -5.34% [cytotoxic]. In the case of `Cc1nc2sc(C(=O)c3ccccc3)c(N)c2c2c1CCCC2`, the Potency is reported as inconclusive [cytotoxic, single point]. With `COCCNC(=O)COc1coc(CN2CCN(Cc3ccccc3)CC2)cc1=O` the “activity, negative = toxicity” value was inactive: 18.9%. For `CCN1CCN(C(C(=O)NC2CCCCC2)c2ccnc3ccccc23)CC1` (centres undefined), the “activity, negative = toxicity” value was inactive: 4.1%. With `Cc1ccc(-c2c[n+](CC(=O)Nc3nc(-c4ccc(F)cc4)cs3)c3n2CCC3)cc1` the Potency was active: 23.1 µM. In the case of `Cc1nc2ncnn2c(N2CCN(C(c3ccccc3)c3ccccc3)CC2)c1C`, the Potency is reported as inconclusive [cytotoxic, single point]. With `CCNC(=S)NNC(=O)c1ccccn1` the “activity, negative = toxicity” value was inactive: -25.1%. For `CC1CCN(C(=O)CSc2nnc(CNC(=O)c3ccc(F)cc3)o2)CC1`, the “activity, negative = toxicity” value was inactive: -1.65%. For `CCCCCCOc1ccc(N2C(=O)CC(S/C(N)=N/N=C(\C)c3cccs3)C2=O)cc1` (centres undefined), the Potency was inconclusive [cytotoxic, single point]. In the case of `O=C1N[C@@H](Cc2ccccc2)COC(=O)[C@H](Cc2ccc(F)cc2)C/C=C\C[C@@H]1CC(=O)N(CCO)Cc1ccccc1`, the “activity, negative = toxicity” value is reported as inactive: -20.3%. In the case of `COc1ccc(C)cc1S(=O)(=O)n1c([N+](=O)[O-])cnc1C`, the “activity, negative = toxicity” value is reported as inactive: 4.29%. In the case of `COc1ccc(/C=N/Nc2snc(SC)c2C#N)cc1OC`, the Potency is reported as inconclusive [cytotoxic, partial curve]. With `Cc1csc(N/N=C/c2ccc([N+](=O)[O-])cc2)n1` the Potency was inconclusive [cytotoxic, partial curve, poor fit]. For `O=C(COC(=O)CC1c2ccccc2CCN1S(=O)(=O)c1ccc(F)cc1)Nc1ccccc1` (centres undefined), the “activity, negative = toxicity” value was inactive: -1.59%. With `CCOC(=O)N1CCC(Nc2c(Nc3cccc(CC)c3)c(=O)c2=O)CC1` the Potency was inconclusive [cytotoxic, partial curve]. In the case of `NC(=O)c1ccsc1NC(=O)COC(=O)Cc1ccccc1[N+](=O)[O-]`, the “activity, negative = toxicity” value is reported as inactive: -14.1%. With `CCC(C)NC(=O)c1cccc(OCc2c(C)noc2C)c1` (centres undefined) the “activity, negative = toxicity” value was inactive: 0.643%. In the case of `Cc1cc(C)c([N+](=O)[O-])cc1-c1ccc(/C=N/c2c(-c3ccco3)nc3ccccn23)o1`, the “activity, negative = toxicity” value is reported as inactive: -26.2%. In the case of `CSCCC(NC(=O)c1ccccc1Br)C(=O)N1CCN(C/C=C/c2ccccc2)CC1` (centres undefined), the Potency is reported as inconclusive [cytotoxic, single point]. In the case of `COc1ccc(CCn2c(C3CCCCC3)nc3c(c(=O)c4ccccc4n3C)c2=O)cc1`, the Potency is reported as inconclusive [cytotoxic, single point]. In the case of `CCOc1ccc(NC(=O)C2CCN(S(=O)(=O)c3ccc4c(c3)CC(C)N4C(C)=O)CC2)cc1` (centres undefined), the “activity, negative = toxicity” value is reported as inactive: -8.04%. In the case of `CSCc1cc(N(C)C)nc(SCc2ccc(Cl)c(Cl)c2)n1`, the Potency is reported as inconclusive [cytotoxic, single point]. With `FC(F)(F)c1cccc(NC(=S)N(CCCN2CCCC2)Cc2cccn2Cc2ccc(Cl)cc2)c1` the Potency was active: 23.1 µM. With `O=C(Nc1ccc[n+](CC(=O)c2cccc3ccccc23)c1)c1ccccc1` the Potency was inconclusive [cytotoxic, partial curve]. For `Cc1cccc(COC[C@H](Cc2ccccc2)N2CCN(C(=O)c3cccc(Cl)c3)CCC2=O)c1`, the Potency was inconclusive [cytotoxic, single point]. For `Cc1ccnc2nc(C(=O)OCC(=O)NC3CCCC(C)C3C)nn12` (centres undefined), the activity, negative = toxicity was inconclusive: -26.1% [cytotoxic]. For `O=C(c1ccccc1)c1n[nH]c(-c2ccccc2)cc1=O`, the “activity, negative = toxicity” value was inactive: 15.3%. For `CCCCC(CC)C(=O)Oc1ccc(O)c(C(C)(C)C)c1` (centres undefined), the Potency was active: 23.1 µM. With `COc1ccc(C(=O)C(CCC(CNC(C)(C)C)C(=O)c2ccc(OC)cc2)CNC(C)(C)C)cc1` (centres undefined) the Potency was active: 4.61 µM. For `Cc1cccc(C)c1NC(=O)C(c1ccccc1F)n1c(=O)c(-c2cc3ccccc3[nH]2)nc2ccccc21` (centres undefined), the Potency was inconclusive [cytotoxic, partial curve]. With `O=C(/C=C/c1ccccc1)c1cc(Br)ccc(=O)c1O` the Potency was inconclusive [cytotoxic, single point]. For `c1ccc(CNc2ccc3ccccc3n2)nc1`, the Potency was inconclusive [cytotoxic, single point]. With `COc1ccc2sc(-c3ccccc3OC)c(-c3ccc(OCCN(C)C)cc3)c2c1` the Potency was inconclusive [cytotoxic, single point]. With `O=C(c1csc2ccccc12)N1CCN(c2ccccn2)CC1` the “activity, negative = toxicity” value was inactive: -1.33%. For `O=c1c2ccccc2nc(N/N=C/c2c(O)ccc3ccccc23)n1O`, the Potency was inconclusive [cytotoxic, full curve]. With `Cc1cc(C)nc(N2CCCC(C(=O)Nc3ccc4nc(C)c(C)nc4c3)C2)n1` (centres undefined) the “activity, negative = toxicity” value was inactive: 6.08%. With `Cc1ccc(S(=O)(=O)N2CCN(C(=O)c3cccs3)CC2)c(C)c1` the “activity, negative = toxicity” value was inactive: -1.61%. For `COc1cccc(Nc2nc(C(N)c3ccccc3)cs2)n1` (centres undefined), the Potency was inconclusive [cytotoxic, partial curve]. With `O=[N+]([O-])c1cccc(S(=O)(=O)Nc2ccc3cn[nH]c3c2)c1` the “activity, negative = toxicity” value was inactive: 8.36%. With `CC(O)(CS(=O)(=O)Cc1ccccc1)C(=O)Nc1cccc(C(F)(F)F)c1` (centres undefined) the Potency was inconclusive [cytotoxic, single point]. In the case of `Cc1cc([N+](=O)[O-])c(=O)[nH]c1C`, the Potency is reported as inconclusive [rising, partial curve, poor fit]. With `COc1ccccc1NCC(=O)N/N=C/c1c(O)ccc2ccccc12` the Potency was active: 10.3 µM. In the case of `OC(c1ccccc1)(c1ccccc1)c1ncc[nH]1`, the “activity, negative = toxicity” value is reported as inactive: 29%. With `CCn1cc(C(=O)NCc2ccco2)c(=O)c2cc(S(=O)(=O)N3CC(C)CC(C)C3)ccc21` (centres undefined) the Potency was active: 5.8 µM. In the case of `O=C(CSc1ncnc2nc[nH]c12)c1ccc([N+](=O)[O-])cc1`, the Potency is reported as inconclusive [cytotoxic, single point]. For `CC(=O)Nc1cccc(-c2ccnc3c2CC(C)(C(=O)Nc2cccc(Oc4ccccc4)c2)O3)c1` (centres undefined), the Potency was inconclusive [cytotoxic, partial curve, poor fit]. For `CC(C)(C)c1ccc(S(=O)(=O)/N=C2\C=C(NS(=O)(=O)c3ccccc3)C(=O)c3ccccc32)cc1`, the Potency was active: 16.4 µM. In the case of `O=c1cc(-c2ccccc2)[nH]c2cc(F)ccc12`, the Potency is reported as active: 4.11 µM. With `CC(C)c1cc(Cn2c3ccccc3c(=O)n2C(C)Cn2cc(-c3ccc(C(C)(C)C)cc3)nn2)on1` (centres undefined) the Potency was inconclusive [cytotoxic, single point]. In the case of `COc1ccc(CCNCc2csc3nc4ccccc4n23)cc1OC`, the “activity, negative = toxicity” value is reported as inactive: -16.8%. For `CCN(CC)CCCn1c2c(c(SCC(=O)Nc3ccc(C)c(F)c3)nc1=O)CCC2`, the “activity, negative = toxicity” value was inactive: 4.24%. In the case of `O=C(NNS(=O)(=O)c1ccccc1[N+](=O)[O-])c1cc2ccccc2cc1O`, the Potency is reported as inconclusive [cytotoxic, single point]. With `CCC(=O)N1CCc2cc(S(=O)(=O)CCC(=O)N3CCCC(C)C3)ccc21` (centres undefined) the “activity, negative = toxicity” value was inactive: 0.851%. With `CC(C)NC(=S)N1CCN(S(=O)(=O)c2cccc(C(F)(F)F)c2)CC1` the “activity, negative = toxicity” value was inactive: -4.42%. In the case of `OC(C#Cc1ccccc1)(c1ccccc1)c1ccccc1`, the Potency is reported as inconclusive [cytotoxic, single point]. For `CCCN(CCC)C(=S)NC(=O)c1ccc(Cl)cc1Cl`, the Potency was active: 2.51 µM. With `O=C(Nc1nnc(-c2ccccc2Cl)o1)c1ccc(S(=O)(=O)N2CCCCCC2)cc1` the Potency was active: 8.2 µM. For `CCCCCC(=O)NNC(=S)NC(C)=O`, the activity, negative = toxicity was inconclusive: 33.8%. In the case of `CCCCc1ccc(NC(=S)N2CCN(C(=O)c3ccco3)CC2)cc1`, the “activity, negative = toxicity” value is reported as inactive: -2.65%. With `Cc1cccc(NC(=O)CN(C)S(=O)(=O)c2ccc3c(c2)n(C)c(=O)c(=O)n3C)c1C` the “activity, negative = toxicity” value was inactive: 13.5%. For `Cc1nn(-c2ccccc2)c2[nH]c(=O)c(CNc3ccc(N4CCOCC4)cc3)cc12`, the Potency was inconclusive [cytotoxic, single point]. For `CC1CCN(Cc2c(C(=O)N/N=C/c3ccccc3O)nnn2-c2nonc2N)CC1`, the Potency was active: 5.17 µM. In the case of `COc1cccc(CNCCc2c[nH]c3ccccc23)c1OCc1ccc(F)cc1`, the Potency is reported as inconclusive [cytotoxic, single point]. With `Clc1ccc(OCCn2ccnc2)c2ccccc12` the Potency was inconclusive [cytotoxic, single point]. For `COC1=CC(=O)c2ccccc2C1=O`, the Potency was active: 5.17 µM. For `CC(=O)[C@@]1(O)C(C)CC2C3C=C(C)C4=Cc5c(cnn5-c5ccccc5)C[C@]4(C)C3C(O)C[C@@]21C` (some centres undefined), the Potency was active: 20.6 µM. With `CC(NC(=O)COC(=O)c1ccc(N(C)C)cc1)c1ccccc1` (centres undefined) the Potency was active: 18.4 µM. With `COc1ccc(-c2nc3cc(NC(=S)NC(=O)Cc4ccccc4)ccc3o2)cc1` the Potency was inconclusive [cytotoxic, partial curve]. For `CCOc1ccc(NC2=CC(=O)C(=O)c3ccccc32)cc1`, the Potency was inconclusive [cytotoxic, single point]. In the case of `O=C(Nc1ccc(F)cc1)NC1(C(=O)NCc2ccc3c(c2)OCO3)CCCCC1`, the “activity, negative = toxicity” value is reported as inactive: 1.12%. For `Cc1cccc(C)c1N1CCN(C(c2cc3ccccc3o2)c2nnnn2C(C)(C)C)CC1` (centres undefined), the Potency was inconclusive [cytotoxic, partial curve, poor fit]. In the case of `Cc1cccc(CSc2nnc(-c3cccs3)n2Cc2ccco2)c1`, the Potency is reported as inconclusive [cytotoxic, single point]. In the case of `COc1ccc(-c2noc(CSc3ccccc3)n2)cc1OC`, the “activity, negative = toxicity” value is reported as inactive: 4.49%. In the case of `COC(=O)c1ccc(COc2cccn3c(N(C)C(=O)CCC4CCCC4)c(C)nc23)cc1`, the Potency is reported as inconclusive [cytotoxic, single point].
